{"source": "PubChem BioAssay AID1347055", "about": "(National Center for Advancing Translational Sciences (NCATS), 2019)", "note": "About 120 (0.22%) of roughly 54,000 compounds were called active. Inconclusive means that the source gave no clear call. Such entries were picked first, then a sample of the others. Calls follow the shape of the dose curve; as a rule, active = well fitted inhibition curve with a large enough effect; inconclusive = small, poorly fitted or top-dose-only effect, or effect the other way; inactive = flat fitted curve, though single readings scatter. No potency is given beside an inconclusive call; the fits are too rough. Potency is read from the fitted curve at half-maximal effect; tags tell the direction and shape of the fitted curve."}
{"biological_target": "Fumarate hydratase, mitochondrial (Homo sapiens) (UniProt P07954)", "sequence (P07954 whole entry, looked up)": "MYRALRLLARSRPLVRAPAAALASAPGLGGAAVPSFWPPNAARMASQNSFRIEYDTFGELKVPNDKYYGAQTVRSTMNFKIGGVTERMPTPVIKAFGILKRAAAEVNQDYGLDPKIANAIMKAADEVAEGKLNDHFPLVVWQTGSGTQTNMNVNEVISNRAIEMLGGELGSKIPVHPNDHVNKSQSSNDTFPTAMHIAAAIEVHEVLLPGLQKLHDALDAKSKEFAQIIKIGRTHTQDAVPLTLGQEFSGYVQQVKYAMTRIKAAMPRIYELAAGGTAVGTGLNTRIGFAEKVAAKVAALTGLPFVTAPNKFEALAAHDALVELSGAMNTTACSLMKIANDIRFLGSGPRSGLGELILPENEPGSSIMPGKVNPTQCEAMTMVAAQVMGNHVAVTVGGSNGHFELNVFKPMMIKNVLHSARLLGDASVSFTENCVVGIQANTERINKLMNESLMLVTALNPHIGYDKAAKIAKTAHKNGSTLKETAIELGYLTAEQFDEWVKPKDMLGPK", "assay": "Identification of activators of human fumarate hydratase by quantitative high-throughput screening; also: the screen sought activators but most active calls are inhibition curves; nearly all actives have a fitted effect of over 45% in size", "settings": "FH coupled MDH/diaphorase resazurin fluorescence, 15 min; series mostly up to 79.9 µM"}
{"smiles": "COc1ccc(Br)cc1C1Sc2ccccc2NC2=C1C(=O)c1ccccc12", "note": "(stereo not given)", "Potency": "inconclusive [inhibitor, partial curve, poor fit]"}
{"smiles": "CCOc1ccc(-n2c(=O)c3c4c(sc3n(CC(=O)Nc3cccc(C(F)(F)F)c3)c2=O)CCCCC4)cc1", "Potency": "inconclusive [inhibitor, partial curve, poor fit]"}
{"smiles": "Nc1nc2c(c(=O)[nH]1)C[C@@H](CCc1ccc(C(=O)N[C@@H](CCC(=O)O)C(=O)O)cc1)CN2", "Potency": "inactive"}
{"smiles": "CCOc1ccc(S(=O)(=O)NCCc2csc3nc(-c4ccc(F)cc4)nn23)cc1", "Potency": "inactive"}
{"smiles": "N#Cc1c(-n2ncnc2-c2ccccc2C(F)(F)F)sc2c1CCCCC2", "Potency": "inactive"}
{"smiles": "Cc1ccc(NCc2cccn2-c2nnc(N3CCC(C(=O)NCCC(C)C)CC3)s2)cc1", "Potency": "inactive"}
{"smiles": "CC(C)(C)c1ccc(C(=O)NCC(c2cccs2)S(=O)(=O)c2cccs2)cc1", "note": "(stereo not given)", "Potency": "inconclusive [inhibitor, single point]"}
{"smiles": "Fc1ccc(-n2ncc3c(NCCC4=CCCCC4)ncnc32)cc1", "Potency": "inactive"}
{"smiles": "N/C(=N\\N=C\\c1ccc(Cl)cc1)N/N=C/c1ccc(Cl)cc1", "Potency": "inconclusive [inhibitor, partial curve, poor fit]"}
{"smiles": "O=C(/C=C/n1cnc(-c2cc(C(F)(F)F)cc(C(F)(F)F)c2)n1)NNc1cnccn1", "Potency": "inactive"}
{"smiles": "O=C(NCC1(N2CCN(c3ccccc3)CC2)CCOCC1)c1cccnc1Sc1ccccc1", "Potency": "inactive"}
{"smiles": "COc1cccc([C@@H](C)NCCCc2ccccc2Cl)c1", "Potency": "inactive"}
{"smiles": "Cc1cccc(N2CCN(C(=O)C3CCN(c4ncnc5c4nc4n5CCCCC4)CC3)CC2)c1C", "Potency": "inconclusive [inhibitor, partial curve, poor fit]"}
{"smiles": "CN(c1ccccc1)S(=O)(=O)c1ccc(NC(=O)c2nc(S(C)(=O)=O)ncc2Cl)cc1", "Potency": "inconclusive [inhibitor, partial curve, poor fit]"}
{"smiles": "C=C[C@]1(C)C=C2CCC3C(C)(CCC[C@@]3(C)C(=O)O)C2CC1", "note": "(stereo not given in full)", "Potency": "inactive"}
{"smiles": "CCOC(=O)CC(NC(=O)CCc1c(C)nc2c(-c3ccccc3)c(C)nn2c1C)c1ccc(OC(C)C)cc1", "note": "(stereo not given)", "Potency": "inconclusive [inhibitor, partial curve]"}
{"smiles": "COc1ccc(C2NC(=O)N(C)C3=C2C(=O)N(c2ccc(Br)cc2)C3)cc1", "note": "(stereo not given)", "Potency": "inconclusive [inhibitor, single point]"}
{"smiles": "COc1cccc2sc(N(Cc3cccnc3)C(=O)c3ccc4c(c3)OCCO4)nc12", "Potency": "inconclusive [inhibitor, single point]"}
{"smiles": "Oc1cc(O)cc(C=Cc2ccc(O)c(O)c2)c1", "Potency": "inconclusive [inhibitor, partial curve]"}
{"smiles": "Cc1ccc(C)c(NC(=O)CN2CCSc3ccc(S(=O)(=O)N4CCCC4)cc32)c1", "Potency": "inconclusive [inhibitor, partial curve]"}
{"smiles": "COc1ccccc1C1c2c(-c3ccc(Cl)cc3)n[nH]c2C(=O)N1c1ccc(C)cc1", "note": "(stereo not given)", "Potency": "inconclusive [inhibitor, full curve]"}
{"smiles": "Cc1ccccc1S(=O)(=O)Cc1ccc(C(=O)N2CCN(c3cccc(Cl)c3)CC2)o1", "Potency": "inconclusive [inhibitor, partial curve, poor fit]"}
{"smiles": "C=Cc1ccc(Cn2c(C(=O)O)c(CNCc3ccc(F)cc3)c3ccc(C)cc32)cc1", "Potency": "inactive"}
{"smiles": "CC(C)(C)c1ccc(/C=C/C(=O)Nc2ccc(S(N)(=O)=O)cc2)cc1", "Potency": "inactive"}
{"smiles": "CCOc1cccc(NC(=O)C2CC(=O)N(CC)C(=Nc3ccc(F)cc3)S2)c1", "note": "(stereo not given)", "Potency": "inactive"}
{"smiles": "COc1ccc(N2CCN(c3ncnc4c3cnn4C)CC2)cc1", "Potency": "inconclusive [inhibitor, single point]"}
{"smiles": "O=C(NCC(c1cccnc1)N1CCc2ccccc21)c1cccc(Br)c1", "note": "(stereo not given)", "Potency": "inconclusive [inhibitor, partial curve, poor fit]"}
{"smiles": "Cc1cc(C)c(NC(=O)C2CCN(c3nc4ccccc4n4cccc34)CC2)c(C)c1", "Potency": "inactive"}
{"smiles": "COc1cccc(NC(=O)C2CCN(S(=O)(=O)c3cc(-c4noc(C)n4)ccc3C)CC2)c1", "Potency": "inactive"}
{"smiles": "CCOc1ccc(CCNC(=O)c2ccc3c(c2)N(Cc2cccc(Cl)c2)C(=O)c2ccccc2S3(=O)=O)cc1OCC", "Potency": "inconclusive [inhibitor, partial curve]"}
{"smiles": "CSc1ccc(CCNC(=O)c2ccc3c(c2)nc2n3CCOC2)cc1", "Potency": "inconclusive [inhibitor, partial curve]"}
{"smiles": "COc1ccc(Cl)cc1NC(=O)CSc1cn(CC(=O)N2CCCC2)c2ccccc12", "Potency": "inconclusive [inhibitor, partial curve]"}
{"smiles": "Cc1ccc(NC(=O)c2ccc(F)c(S(=O)(=O)N3CCc4ccccc4C3)c2)cc1F", "Potency": "inconclusive [inhibitor, partial curve, poor fit]"}
{"smiles": "Cn1cc(-c2ccc3ncc(Cc4ccc5ncccc5c4)n3n2)cn1", "Potency": "inconclusive [inhibitor, partial curve, poor fit]"}
{"smiles": "CN1C(C)(C)CCCC1(C)C", "Potency": "inconclusive [activator, partial curve]"}
{"smiles": "O=c1ccc2ccc(OCCCCN3CCN(c4cccc5sccc45)CC3)cc2[nH]1", "Potency": "inactive"}
{"smiles": "CCc1nnc(SCc2nc(-c3ccccc3)oc2C)c2cc3sccc3n12", "Potency": "inconclusive [inhibitor, single point]"}
{"smiles": "COc1ccc(-c2cn3nc(N4CCC(C(=O)Nc5cc(Cl)ccc5OC)CC4)sc3n2)cc1", "Potency": "inconclusive [inhibitor, partial curve, poor fit]"}
{"smiles": "CCCCCCCCc1ccc(-c2ccc(C(=O)O)cc2)cc1", "Potency": "inconclusive [inhibitor, single point]"}
{"smiles": "COc1cc2c(=O)n(CCC(=O)NCC3CCCO3)c(=O)n(CC(=O)Nc3c(C)cccc3C)c2cc1OC", "note": "(stereo not given)", "Potency": "inactive"}
{"smiles": "Cn1cc(C(=O)NCc2ccccc2)c(=O)c2cc(S(=O)(=O)N3CCCCCC3)ccc21", "Potency": "inconclusive [inhibitor, partial curve]"}
{"smiles": "Cc1ccc2c(CNC3CCC(C)CC3)c(C(=O)O)n(Cc3cccc(F)c3)c2c1", "note": "(stereo not given)", "Potency": "inconclusive [inhibitor, partial curve, poor fit]"}
{"smiles": "COc1ccc(C2CC(=O)N(CC(=O)Nc3ccc(C(F)(F)F)cc3)c3ccccc3S2)cc1", "note": "(stereo not given)", "Potency": "inactive"}
{"smiles": "CC(NC(=O)c1cc2sccc2n1Cc1ccc(F)cc1)c1ccccc1", "note": "(stereo not given)", "Potency": "inactive"}
{"smiles": "COc1ccc(C(=O)Nc2ccc(-c3cc(C(F)(F)F)nn3-c3ccccc3)cc2)cc1OC", "Potency": "inconclusive [inhibitor, single point]"}
{"smiles": "NC1(C(=O)N[C@@H](CCO)c2ccc(Cl)cc2)CCN(c2ncnc3[nH]ccc23)CC1", "Potency": "inactive"}
{"smiles": "Cc1ccc(C)c(CN2C(=O)C(O)(c3c[nH]c4ccccc34)c3ccccc32)c1", "note": "(stereo not given)", "Potency": "inconclusive [inhibitor, single point]"}
{"smiles": "Cc1cn2c(=O)cc(COC(=O)C(C)Oc3ccccc3)nc2s1", "note": "(stereo not given)", "Potency": "inactive"}
{"smiles": "COc1cccc(NC(=O)c2oc3ccccc3c2NC(=O)Cc2cccc(C)c2)c1", "Potency": "inconclusive [inhibitor, single point]"}
{"smiles": "COc1cc2c(cc1OC)C(COc1ccc(C(C)C)cc1)N(C(=O)COc1ccccc1)CC2", "note": "(stereo not given)", "Potency": "inconclusive [inhibitor, partial curve, poor fit]"}
{"smiles": "CCOc1ccc(CCNC(=O)c2sc3nc4n(c(=O)c3c2C)CCCC4)cc1", "Potency": "inconclusive [inhibitor, partial curve]"}
{"smiles": "Cc1sc2c(c1C)c(=O)n(Cc1ccccc1)c(=O)n2CC(=O)Nc1cccc(Cl)c1", "Potency": "inconclusive [inhibitor, single point]"}
{"smiles": "CCc1ccc(S(=O)(=O)c2cnc(SCC(=O)Nc3ccc(OC)cc3OC)[nH]c2=O)cc1", "Potency": "inactive"}
{"smiles": "Cc1ccc(N2C(=O)C(CC(=O)Nc3ccccc3)N(CCC3=CCCCC3)C2=O)cc1", "note": "(stereo not given)", "Potency": "inconclusive [inhibitor, single point]"}
{"smiles": "CCOc1ccccc1NC(=O)CN1C(=O)C(=O)c2ccccc21", "Potency": "inactive"}
{"smiles": "CCOc1ccccc1N(CC)C(=O)c1cc2ccc3cccnc3c2[nH]1", "Potency": "inconclusive [inhibitor, single point]"}
{"smiles": "Fc1ccc(C(c2ccc(F)cc2)N2CCN(C/C=C/c3ccccc3)CC2)cc1", "Potency": "inconclusive [inhibitor, partial curve]"}
{"smiles": "COC(=O)C1=C(C)NC(C)=C(C(=O)OCC(C)=O)C1c1ccccc1[N+](=O)[O-]", "note": "(stereo not given)", "Potency": "inconclusive [inhibitor, partial curve]"}
{"smiles": "CC(C)c1ccc2oc(-c3cc(NC(=O)c4cccnc4)ccc3Cl)nc2c1", "Potency": "inconclusive [inhibitor, single point]"}
{"smiles": "COc1cc(O)ccc1-c1nc2cc(C)ccn2c1Nc1ccccc1C", "Potency": "inconclusive [inhibitor, partial curve]"}
{"smiles": "O=C(Nc1cccc(F)c1)C1CCN(S(=O)(=O)c2ccc3[nH]c4c(c3c2)CCCCC4)CC1", "Potency": "inactive"}
{"smiles": "CCc1ccc(S(=O)(=O)Nc2cccc(-c3ccc(OC)nn3)c2)s1", "Potency": "inactive"}
{"smiles": "Cc1cccc2c(=O)cc(CSc3ccccc3NC(=O)c3cccc(Br)c3)[nH]c12", "Potency": "inconclusive [inhibitor, partial curve, poor fit]"}
{"smiles": "COc1cc(NC(=O)c2cc(S(=O)(=O)N3CCC(C)CC3)cn2C)cc(OC)c1OC", "Potency": "inactive"}
{"smiles": "CNCCN1CCC(c2cc(CN(C)C(=O)c3cccc(Oc4ccccc4)c3)ccn2)CC1", "Potency": "inactive"}
